The other results are listed elsewhere or left out.
These compounds were tested on T1, C. trachomatis L2/434/Bu expressing GFP (CTL2-GFP). Details: total inclusion area; 28.5 h, 10 µM; inhibitor.
T1 construct: L2/434/Bu GFP intracellular growth in HeLa cells
Parameters: species or system HeLa; C. trachomatis total inclusion area by high-content imaging, normalised to DMSO
Method in brief: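 Following bulk GFP and resorufin fluorescence reads, infected cells were fixed, Hoechst-stained and imaged on a high-content platform. Inclusion total area and number per well served as growth proxies; nuclei counts indicated host viability. MICs were derived as for the fluorescence assay.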

SMILES | % of control remaining
O=C(O)CC(NS(=O)(=O)c1cccc2nsnc12)C(=O)O (stereo not drawn) [CBK073316] | 98.3342
O=C(O)c1cccc2c3c([nH]c12)CCCCC3 [CBK003451] | 101.909
O=C(Cc1cccs1)NCCc1c[nH]cn1 [CBK269805] | 80.0353
O=C1CC(c2ccccc2)CC(NCc2ccc3c(c2)OCO3)=C1C(=S)Nc1ccccc1 (stereo not drawn) [CBK264890] | 98.015
COCCn1cnnc1CCNC(=O)Cc1cccc(O)c1 [CBK307322] | 79.4399
CC1=NN(c2ccc([N+](=O)[O-])cc2)C(=O)/C1=C\NCCN1CCN(C(=O)c2ccc(Br)cc2)CC1 [CBK261788] | 92.5783
Cc1nc2ccccc2c(=O)n1CC(N)=O [CBK004145] | 26.5029
O=C(Cn1c(-c2cccs2)cc2cccnc21)N1CCC(O)CC1 [CBK282458] | 81.4919
CCOc1ccc(NC(=O)C2CC=CCC2C(=O)O)cc1 (stereo not drawn) [CBK274682] | 92.647
Cc1ccc(CNC(=O)Cn2nnc(-c3ccc(CN4CCCC(C(F)(F)F)C4)cc3)n2)cc1 (stereo not drawn) [CBK144562C] | 96.0462
COc1ccc(NC(=O)CSc2ncnc3ccccc23)cc1 [CBK270215] | 83.9855
CC(C)(CO)NC(=O)c1cc(S(=O)(=O)N2CCOCC2)ccc1Cl [CBK269748] | 56.3086
O=C(CSCc1cccc(Br)c1)Nc1cccc2cccnc12 [CBK261204] | 103.923
Nc1ncc2cc(C(F)(F)F)ccc2n1 [CBK100705] | 99.7678
Oc1ccc(/N=C/C=C/c2ccc(Cl)cc2Cl)cc1-c1nc2ccccc2s1 [CBK261242] | 82.2199
N#Cc1ccc(N2CCN(CCCNC(=O)Nc3ccccc3)CC2)cc1 [CBK267861] | 108.808
CNC(=S)NNC(=O)CN1CCSCC1 [CBK262444] | 77.4023
Cc1ccc(C2CC(c3cccnc3)Nc3nnnn32)cc1 (stereo not drawn) [CBK288067] | 86.7884
c1ccc2c(OCc3nc4ccccc4[nH]3)cccc2c1 [CBK262969] | 53.003
O=[N+]([O-])c1cc(C(F)(F)F)ccc1NC(CO)(CO)CO [CBK261838] | 88.558

SMILES | % of control remaining
Cc1nc(-c2ccccc2)sc1CNC(=O)c1ccc([N+](=O)[O-])o1 [CBK092352] | 6.856
CCOC(=O)C1(C2CCCCC2)CCN(C(=O)c2ccc(S(N)(=O)=O)cc2)CC1 [CBK137105] | 101.955
CCCc1cc(C(=O)OC)c(NC(=O)C2CC=CCC2C(=O)O)s1 (stereo not drawn) [CBK265397] | 89.6435
CN1[C@@H]2CC[C@H]1C[C@@H](N1Cc3cc4ccccc4n3C1=O)C2 [CBK017722] | 47.0062
Nc1cc(N)nc(SCc2ccccc2)n1 [CBK261266] | 78.7096
Cc1ccc(C)c(NC(=O)CCNC(=O)c2cnn3cc(C)cnc23)c1 [CBK306590] | 69.9685
N#Cc1ccc(CN2CCCN(C(=O)c3cccc(F)c3)CC2)cc1 [CBK304010] | 88.6472
Cc1noc(C)c1CCC(=O)N1CC[C@H]2NC(=O)c3ccccc3OCCCCC[C@H]2C1 [CBK292036] | 83.0299
O=c1nc(NS(=O)(=O)c2ccccc2Br)c(F)c[nH]1 [CBK067573] | 84.2203
CCOc1ccc2[nH]c(C(=O)NC3CCCN(C)C3)c(C)c2c1 (stereo not drawn) [CBK282530] | 84.3951
O=C(c1ccco1)N1CCC(n2cnc3cccnc32)CC1 [CBK283939] | 85.8484
O=C(NCCc1c[nH]c2ccc(Cl)cc12)c1cc(F)c(Cl)cc1F [CBK159763] | 104.546
O=C(O)c1ccccc1C(=O)N1CCC2(CC1)NCCc1c2[nH]c2ccccc12 [CBK047235] | 78.0445
c1coc(CNc2nc(-c3ccoc3)cn3ccnc23)c1 [CBK066610] | 77.8694
Cc1ccc(S(=O)(=O)c2ccc(C)c(S(=O)(=O)N3CCOCC3)c2)cc1S(=O)(=O)N1CCOCC1 [CBK261677] | 101.981
COc1ccc(Oc2nccnc2N2CCN(Cc3ccc(Cl)cc3)CC2)cc1OC [CBK083041T] | 66.9492
CC(C)=NNC(=O)CSc1nc(N2CCOCC2)c2ccccc2n1 [CBK009114] | 98.4995
CC(=O)NC[C@H]1CN(c2ccc(-c3nnc([C@@H](C)N)s3)c(F)c2)C(=O)O1 [CBK017966] | 0.08965
COCCn1cnnc1C(C)NC(=O)Cn1cc2ccccc2n1 (stereo not drawn) [CBK307047] | 86.7817

— publication PMC12040169 (PLOS Biology, 2025)
